# Results published in the supplement of paper PMC8728848.
# This is one part of the list.
# B1: rAAL-I144G (Agrocybe aegerita), Q6WY08 (protein)
# chain: MQGVNIYNISAGTSVDLAAPVTTGDIVTFFSSALNLNAGAGNPNNTTLNLFAENGAYLLHIAFRLQENVIIFNSRQPDGPWLVEQRVSDVANQFAGIDGKAMVTVFDHGDKYQVVINEKTVIQYTKQISGLTLSLSYNATEETSGFSTVVEAVTYTGLALEHHHHHH
# Tests used:
# Experiment in all cases: glycan array binding signal (z-score within array); higher = stronger binding
# Details in all cases: glycan notation: IUPAC condensed, linker removed; mutation: I144G
# [1] = target: Fuc(a1-2)Gal6S(b1-3)GlcNAc
# Method in brief: (§1)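 Arrays were curated from the Consortium for Functional Glycomics database, 3228 in total, and kept only where the protein sequence was available. Binding is expressed as a within-array Z-score. This score was averaged across arrays of the same protein sequence at different concentrations or buffers and across linkers, and negative values can be read as non-binding.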
# [2] = target: Fuc(a1-2)Gal6S(b1-3)GlcNAc6S
# Method in brief: as §1
# [3] = target: Fuc(a1-2)Gal6S(b1-4)Glc
# Method in brief: as §1
# [4] = target: Fuc(a1-2)Gal6S(b1-4)Glc6S
# Method in brief: as §1
# [5] = target: Fuc(a1-2)[Gal(a1-3)]Gal
# Method in brief: as §1
# [6] = target: Fuc(a1-2)[Gal(a1-3)]Gal(b1-3)GalNAc
# Method in brief: as §1
# [7] = target: Fuc(a1-2)[Gal(a1-3)]Gal(b1-3)GalNAc(b1-3)Gal(a1-4)Gal(b1-4)Glc
# Method in brief: as §1
# [8] = target: Fuc(a1-2)[Gal(a1-3)]Gal(b1-3)GlcNAc
# Method in brief: as §1
# [9] = target: Fuc(a1-2)[Gal(a1-3)]Gal(b1-3)GlcNAc(b1-2)Man(a1-3)[Fuc(a1-2)[Gal(a1-3)]Gal(b1-3)GlcNAc(b1-2)Man(a1-6)]Man(b1-4)GlcNAc(b1-4)GlcNAc
# Method in brief: as §1
# [10] = target: Fuc(a1-2)[Gal(a1-3)]Gal(b1-3)GlcNAc(b1-2)Man(a1-3)[Fuc(a1-2)[Gal(a1-3)]Gal(b1-3)GlcNAc(b1-2)Man(a1-6)]Man(b1-4)GlcNAc(b1-4)[Fuc(a1-6)]GlcNAc
# Method in brief: as §1
# [11] = target: Fuc(a1-2)[Gal(a1-3)]Gal(b1-3)GlcNAc(b1-3)GalNAc
# Method in brief: as §1
# [12] = target: Fuc(a1-2)[Gal(a1-3)]Gal(b1-3)GlcNAc(b1-6)GalNAc
# Method in brief: as §1
# [13] = target: Fuc(a1-2)[Gal(a1-3)]Gal(b1-4)Glc
# Method in brief: as §1
# [14] = target: Fuc(a1-2)[Gal(a1-3)]Gal(b1-4)GlcNAc
# Method in brief: as §1
# [15] = target: Fuc(a1-2)[Gal(a1-3)]Gal(b1-4)GlcNAc(b1-2)Man
# Method in brief: as §1
# [16] = target: Fuc(a1-2)[Gal(a1-3)]Gal(b1-4)GlcNAc(b1-2)Man(a1-3)[Fuc(a1-2)[Gal(a1-3)]Gal(b1-4)GlcNAc(b1-2)Man(a1-6)]Man(b1-4)GlcNAc(b1-4)GlcNAc
# Method in brief: as §1
# [17] = target: Fuc(a1-2)[Gal(a1-3)]Gal(b1-4)GlcNAc(b1-2)Man(a1-3)[Fuc(a1-2)[Gal(a1-3)]Gal(b1-4)GlcNAc(b1-2)Man(a1-6)]Man(b1-4)GlcNAc(b1-4)[Fuc(a1-6)]GlcNAc
# Method in brief: as §1
# [18] = target: Fuc(a1-2)[Gal(a1-3)]Gal(b1-4)GlcNAc(b1-3)GalNAc
# Method in brief: as §1
# [19] = target: Fuc(a1-2)[Gal(a1-3)]Gal(b1-4)GlcNAc(b1-3)[Fuc(a1-2)[Gal(a1-3)]Gal(b1-4)GlcNAc(b1-6)]GalNAc
# Method in brief: as §1
# [20] = target: Fuc(a1-2)[Gal(a1-3)]Gal(b1-4)GlcNAc(b1-6)GalNAc
# Method in brief: as §1
# [21] = target: Fuc(a1-2)[Gal(a1-3)]Gal(b1-4)[Fuc(a1-3)]Glc
# Method in brief: as §1
# [22] = target: Fuc(a1-2)[Gal(a1-3)]Gal(b1-4)[Fuc(a1-3)]GlcNAc
# Method in brief: as §1
# [23] = target: Fuc(a1-2)[Gal(a1-3)]Gal(b1-4)[Fuc(a1-3)]GlcNAc(b1-3)GalNAc
# Method in brief: as §1
# [24] = target: Fuc(a1-2)[Gal(a1-4)]Gal(b1-4)GlcNAc
# Method in brief: as §1
# [25] = target: Fuc(a1-2)[GalNAc(a1-3)]Gal
# Method in brief: as §1
# [26] = target: Fuc(a1-2)[GalNAc(a1-3)]Gal(b1-3)GalNAc(a1-3)[Fuc(a1-2)]Gal(b1-4)GlcNAc
# Method in brief: as §1
# [27] = target: Fuc(a1-2)[GalNAc(a1-3)]Gal(b1-3)GalNAc(b1-3)Gal(a1-4)Gal(b1-4)Glc
# Method in brief: as §1
# [28] = target: Fuc(a1-2)[GalNAc(a1-3)]Gal(b1-3)GlcNAc
# Method in brief: as §1
# [29] = target: Fuc(a1-2)[GalNAc(a1-3)]Gal(b1-3)GlcNAc(b1-2)Man(a1-3)[Fuc(a1-2)[GalNAc(a1-3)]Gal(b1-3)GlcNAc(b1-2)Man(a1-6)]Man(b1-4)GlcNAc(b1-4)GlcNAc
# Method in brief: as §1
# [30] = target: Fuc(a1-2)[GalNAc(a1-3)]Gal(b1-3)GlcNAc(b1-2)Man(a1-3)[Fuc(a1-2)[GalNAc(a1-3)]Gal(b1-3)GlcNAc(b1-2)Man(a1-6)]Man(b1-4)GlcNAc(b1-4)[Fuc(a1-6)]GlcNAc
# Method in brief: as §1
# [31] = target: Fuc(a1-2)[GalNAc(a1-3)]Gal(b1-3)GlcNAc(b1-3)GalNAc
# Method in brief: as §1
# [32] = target: Fuc(a1-2)[GalNAc(a1-3)]Gal(b1-3)GlcNAc(b1-6)GalNAc
# Method in brief: as §1
# [33] = target: Fuc(a1-2)[GalNAc(a1-3)]Gal(b1-4)Glc
# Method in brief: as §1
# [34] = target: Fuc(a1-2)[GalNAc(a1-3)]Gal(b1-4)GlcNAc
# Method in brief: as §1
# [35] = target: Fuc(a1-2)[GalNAc(a1-3)]Gal(b1-4)GlcNAc(b1-2)Man
# Method in brief: as §1
# [36] = target: Fuc(a1-2)[GalNAc(a1-3)]Gal(b1-4)GlcNAc(b1-2)Man(a1-3)[Fuc(a1-2)[GalNAc(a1-3)]Gal(b1-4)GlcNAc(b1-2)Man(a1-6)]Man(b1-4)GlcNAc(b1-4)GlcNAc
# Method in brief: as §1
# [37] = target: Fuc(a1-2)[GalNAc(a1-3)]Gal(b1-4)GlcNAc(b1-2)Man(a1-3)[Fuc(a1-2)[GalNAc(a1-3)]Gal(b1-4)GlcNAc(b1-2)Man(a1-6)]Man(b1-4)GlcNAc(b1-4)[Fuc(a1-6)]GlcNAc
# Method in brief: as §1
# [38] = target: Fuc(a1-2)[GalNAc(a1-3)]Gal(b1-4)GlcNAc(b1-3)Gal(b1-4)GlcNAc
# Method in brief: as §1
# [39] = target: Fuc(a1-2)[GalNAc(a1-3)]Gal(b1-4)GlcNAc(b1-3)Gal(b1-4)GlcNAc(b1-3)Gal(b1-4)GlcNAc
# Method in brief: as §1
# [40] = target: Fuc(a1-2)[GalNAc(a1-3)]Gal(b1-4)GlcNAc(b1-3)GalNAc
# Method in brief: as §1
# [41] = target: Fuc(a1-2)[GalNAc(a1-3)]Gal(b1-4)GlcNAc(b1-3)[Fuc(a1-2)[GalNAc(a1-3)]Gal(b1-4)GlcNAc(b1-6)]GalNAc
# Method in brief: as §1
# [42] = target: Fuc(a1-2)[GalNAc(a1-3)]Gal(b1-4)GlcNAc(b1-6)GalNAc
# Method in brief: as §1
# [43] = target: Fuc(a1-2)[GalNAc(a1-3)]Gal(b1-4)[Fuc(a1-3)]GlcNAc
# Method in brief: as §1
# [44] = target: Fuc(a1-2)[GalNAc(a1-3)]Gal(b1-4)[Fuc(a1-3)]GlcNAc(b1-3)GalNAc
# Method in brief: as §1
# [45] = target: Fuc(a1-2)[GalNAc(a1-4)]Gal(b1-4)GlcNAc
# Method in brief: as §1
binder,measurement,setting,value
B1,glycan array binding signal (z-score),[1],-0.155
same,glycan array binding signal (z-score),[2],-0.087
same,glycan array binding signal (z-score),[3],-0.039
same,glycan array binding signal (z-score),[4],-0.143
same,glycan array binding signal (z-score),[5],-0.102
same,glycan array binding signal (z-score),[6],0.143
same,glycan array binding signal (z-score),[7],-0.18
same,glycan array binding signal (z-score),[8],-0.104
same,glycan array binding signal (z-score),[9],-0.093
same,glycan array binding signal (z-score),[10],-0.145
same,glycan array binding signal (z-score),[11],-0.158
same,glycan array binding signal (z-score),[12],-0.189
same,glycan array binding signal (z-score),[13],-0.079
same,glycan array binding signal (z-score),[14],-0.113
same,glycan array binding signal (z-score),[15],-0.142
same,glycan array binding signal (z-score),[16],-0.108
same,glycan array binding signal (z-score),[17],-0.142
same,glycan array binding signal (z-score),[18],-0.194
same,glycan array binding signal (z-score),[19],-0.12
same,glycan array binding signal (z-score),[20],-0.088
same,glycan array binding signal (z-score),[21],-0.077
same,glycan array binding signal (z-score),[22],-0.166
same,glycan array binding signal (z-score),[23],-0.118
same,glycan array binding signal (z-score),[24],-0.036
same,glycan array binding signal (z-score),[25],-0.166
same,glycan array binding signal (z-score),[26],-0.155
same,glycan array binding signal (z-score),[27],-0.146
same,glycan array binding signal (z-score),[28],-0.197
same,glycan array binding signal (z-score),[29],-0.092
same,glycan array binding signal (z-score),[30],-0.134
same,glycan array binding signal (z-score),[31],-0.021
same,glycan array binding signal (z-score),[32],-0.134
same,glycan array binding signal (z-score),[33],-0.157
same,glycan array binding signal (z-score),[34],-0.15
same,glycan array binding signal (z-score),[35],-0.217
same,glycan array binding signal (z-score),[36],0.003
same,glycan array binding signal (z-score),[37],-0.12
same,glycan array binding signal (z-score),[38],-0.162
same,glycan array binding signal (z-score),[39],-0.101
same,glycan array binding signal (z-score),[40],-0.183
same,glycan array binding signal (z-score),[41],-0.158
same,glycan array binding signal (z-score),[42],-0.117
same,glycan array binding signal (z-score),[43],-0.134
same,glycan array binding signal (z-score),[44],-0.041
same,glycan array binding signal (z-score),[45],-0.219
